Measurements taken from paper PMC4336329 (PLoS ONE, 2015).
The whole screen tested about 310,000 compounds, of which about 2,200 (0.71%) showed an effect of 50% or more. Effects have a minus sign here. The list shows a part of the results.

target: human ether-à-go-go-related gene (hERG) potassium channel (human, UniProt Q12809); experiment: primary screen, population patch clamp on CHO cells stably expressing hERG
Sequence (Q12809 whole entry, looked up): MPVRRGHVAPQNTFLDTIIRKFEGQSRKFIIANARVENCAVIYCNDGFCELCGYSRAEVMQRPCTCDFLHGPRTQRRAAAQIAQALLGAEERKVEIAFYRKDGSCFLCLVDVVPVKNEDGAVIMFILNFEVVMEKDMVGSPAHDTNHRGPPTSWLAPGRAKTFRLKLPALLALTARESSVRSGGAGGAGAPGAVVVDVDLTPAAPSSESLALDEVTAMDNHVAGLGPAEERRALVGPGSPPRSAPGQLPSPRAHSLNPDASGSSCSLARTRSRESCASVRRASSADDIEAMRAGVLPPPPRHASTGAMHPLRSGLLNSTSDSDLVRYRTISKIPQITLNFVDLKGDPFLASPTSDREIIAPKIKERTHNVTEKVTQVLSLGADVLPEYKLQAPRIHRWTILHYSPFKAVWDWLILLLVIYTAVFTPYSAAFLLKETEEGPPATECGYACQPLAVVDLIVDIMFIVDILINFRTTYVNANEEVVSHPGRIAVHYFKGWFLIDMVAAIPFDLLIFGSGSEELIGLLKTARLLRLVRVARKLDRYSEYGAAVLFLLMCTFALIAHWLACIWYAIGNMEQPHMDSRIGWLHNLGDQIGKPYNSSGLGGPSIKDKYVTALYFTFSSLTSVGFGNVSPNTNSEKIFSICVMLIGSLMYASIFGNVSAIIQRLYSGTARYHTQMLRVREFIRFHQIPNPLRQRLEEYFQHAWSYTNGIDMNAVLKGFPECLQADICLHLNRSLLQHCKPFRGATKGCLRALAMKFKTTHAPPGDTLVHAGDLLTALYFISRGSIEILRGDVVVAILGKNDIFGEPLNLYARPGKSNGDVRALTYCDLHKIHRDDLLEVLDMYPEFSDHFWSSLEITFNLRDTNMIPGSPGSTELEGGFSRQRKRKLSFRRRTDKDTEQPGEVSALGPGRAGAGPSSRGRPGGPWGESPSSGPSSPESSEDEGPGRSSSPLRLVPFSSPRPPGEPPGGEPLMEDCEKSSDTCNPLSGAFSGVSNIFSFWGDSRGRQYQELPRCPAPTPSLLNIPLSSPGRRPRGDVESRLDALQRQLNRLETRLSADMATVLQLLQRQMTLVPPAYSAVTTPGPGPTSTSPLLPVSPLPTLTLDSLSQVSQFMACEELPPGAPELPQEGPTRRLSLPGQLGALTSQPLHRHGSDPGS

Compound | hERG current change (%, negative = inhibition) at 1uM
Cc1ccc(S(=O)(=O)N2CCOCC2)s1 | 14.8%
CN1CCN(C(=O)/C=C/c2ccccc2)CC1 | 13.5%
COc1cc(C=C(c2nc3ccccc3s2)c2nc3ccccc3s2)ccc1O | 12.1%
CC(=O)c1cnc2c(-c3ccccc3)c(C(F)(F)F)nn2c1C | 11.3%
O=S(=O)(c1cccs1)N1CCN(c2ccccc2Cl)CC1 | 15.1%
COc1ccc(NC(=O)CSc2nc3c(c(-c4cccs4)c2C#N)CN(C)CC3)cc1OC | 8.17%
O=C(COC(=O)Cc1ccc(S(=O)(=O)N2CCOCC2)s1)NCc1ccccc1 | -0.496%
COc1ccccc1NC(=O)c1ccc(NC2=NC3CS(=O)(=O)CC3S2)cc1 (stereo not drawn) | 16.1%
CCN(CC)S(=O)(=O)c1cc(C(=O)Nc2nncs2)c(Cl)cc1Cl | -13.4%
Cc1cc(=O)oc2c3c(cc(OCC(=O)N4CCC[C@H]4C(=O)O)c12)OC(C)(C)CC3 | 4.57%
COc1ccc(-c2nnn(CC(=O)N(CCCN3CCOCC3)C(C(=O)NC3CCCC3)c3ccco3)n2)cc1 (stereo not drawn) | -7.27%
COc1ccc(N2CCN(C(=O)c3ccc(CS(=O)(=O)c4ccccc4C)o3)CC2)cc1 | 0.393%
COc1ccc(Nc2nc(N)nc(CN3CCC(Cc4ccccc4)CC3)n2)cc1 | -81%
CCOc1ccc(S(=O)(=O)NCc2ccncc2)cc1NC(=O)c1ccccc1F | 26.6%
Cc1ccc(OCCCC(=O)Nc2ccc3c(c2)OCO3)cc1 | 11.8%
O=C(NNC(=O)c1cc2ccccc2cc1O)Nc1ccccc1F | 4.12%
O=C1CN(C(=O)COC(=O)c2ccccc2O)c2ccccc2N1 | 10.8%
CCN(CC)C(=O)CCCSc1nnc(Nc2ccccc2F)s1 | 3.49%
CCOC(=O)c1cc(CC)sc1NC(=O)c1cc(OCC)c(OCC)c(OCC)c1 | 11.7%
COc1ccc(S(=O)(=O)NCC2CCC(C(=O)NCCC(C)C)CC2)cc1 (stereo not drawn) | 6.95%
COc1ccc(-n2c(SC3CCOC3=O)nc3ccccc3c2=O)cc1Cl (stereo not drawn) | 7.9%
Cc1cc(C)nc(SCc2nnc(SCC(N)=O)n2Cc2ccco2)n1 | -3.7%
Cc1ccc(S(=O)(=O)NN2C(=O)/C(=C/c3ccc(F)cc3)SC2=S)cc1 | 10.5%

Compound | hERG current change (%, negative = inhibition) at 1uM
O=C(CN1CCN(Cc2ccccc2)CC1)N/N=C/c1ccco1 | 6.75%
O=C(COC(=O)CN=C1NS(=O)(=O)c2ccccc21)Nc1ccccc1OC(F)F | 4.87%
COc1c(C)c2c(c(O)c1C/C=C(\C)CCC(=O)O)C(=O)OC2 | 13.6%
COc1ccc(-c2cc(C(=O)NCCc3ccccc3)no2)cc1OC | 8.51%
Cc1ccc(C2=NOC(C)(c3nnc(Cc4ccccc4)o3)C2)cc1 (stereo not drawn) | 6.43%
O=[N+]([O-])c1ccc(-n2cc(-c3ccccc3)nn2)cc1 | 0.495%
CC(C)N1C(=O)C2C(C(=O)NC3CCCCC3)C3C=CC2(O3)C1C(=O)NC1CCCCC1 (stereo not drawn) | 6.69%
CC(C)c1cc(CN2CCN(Cc3ccc(F)c(F)c3)C(CCO)C2)[nH]n1 (stereo not drawn) | -3.17%
CCCCCCC(=O)N=Nc1c(O)[nH]c2ccc([N+](=O)[O-])cc12 | 8.81%
OC(COC(c1ccccc1)c1ccccc1)CN1CCCCC1 (stereo not drawn) | -18.5%
O=C(NN1CCOCC1)c1ccc(Cl)cc1Cl | 5.91%
COc1cccc(C2=NO[C@@H]3C(=O)N(Cc4ccccc4)C(=O)[C@H]23)c1OC | -1.01%
Cc1c(-c2ccc(Br)cc2)nc2ccccn12 | 2.27%
COc1ccc(-c2cn3cc(C(F)(F)F)cc(Cl)c3n2)cc1 | 10.9%
COc1ccc(C(=O)N/C(=C/c2cccc3ccccc23)C(=O)NCCc2c[nH]c3ccccc23)cc1OC | 9%
COc1ccc(O)c(/C=N/NC(=O)c2cc(=O)[nH]c3ccccc23)c1 | -5.85%
Cc1ccc(S(=O)(=O)NCCC(=O)N2CCN(S(=O)(=O)c3cccc(F)c3)CC2)cc1C | 7.24%
COCC(=O)N(Cc1cc2ccc(C)c(C)c2n2nnnc12)C1CCCC1 | 8.1%
CCn1cnc2c1c(=O)n(Cc1cccc(Br)c1)c(=O)n2Cc1ccccc1 | 17.4%
COc1ccccc1-c1cc(C(F)(F)F)nc(S(=O)(=O)CCCC(=O)N2CCOCC2)n1 | 8.58%
CC(=O)Nc1ccc(OCC(O)CN2CCN(c3ccccc3Cl)CC2)cc1 (stereo not drawn) | -9.46%
Cc1ccc(CSC2=Nc3ccccc3C3=NC(CC(=O)NCc4ccco4)C(=O)N23)cc1 (stereo not drawn) | -11.1%
